The record followed here is the antibiotic and cytotoxicity screens of Wong et al. (2023).

Some of the results follow.

One assay has as its system HSkMC. In words: cytotoxicity call (relative viability < 0.9). As to conditions: 10 µM.
A further assay has as its system HepG2. The assay can be described thus: cytotoxicity call (relative viability < 0.9). As to conditions: 10 µM.
The next assay relates to S. aureus RN4220. In words: growth inhibition call (relative growth <= 0.2). The settings on record: 50 µM.

For `Cc1ccc(S(=O)(=O)N(C)C[C@H]2OCCCC[C@H](C)Oc3ccc(NC(=O)Nc4ccc5c(c4)OCO5)cc3C(=O)N([C@H](C)CO)C[C@H]2C)cc1`, the cytotoxicity call with HSkMC and in the assay with HepG2 was “inactive” throughout. Further, the growth inhibition call in the assay with S. aureus RN4220 is “inactive”.
For `COc1cccc(NC(=O)N(C)C[C@@H]2Oc3cc(C#Cc4ccncc4)ccc3S(=O)(=O)N([C@@H](C)CO)C[C@H]2C)c1`, in the assay with HSkMC, the cytotoxicity call is “inactive”. The cytotoxicity call in the assay with HepG2 is “active”. Further, the growth inhibition call with S. aureus RN4220 is “inactive”.
As for `C[C@@H]1CN([C@H](C)CO)S(=O)(=O)c2ccc(C#CCN(C)C)cc2O[C@H]1CN(C)Cc1ccc(F)cc1`, in the assay with HSkMC, the cytotoxicity call is “inactive”. Moreover, the cytotoxicity call in the assay on HepG2 was “active”. Moreover, in the assay on S. aureus RN4220, the growth inhibition call is “inactive”.
For `COc1cccc(-c2ccc3c(c2)O[C@@H](CN(C)Cc2cncnc2)[C@@H](C)CN([C@H](C)CO)S3(=O)=O)c1`, the cytotoxicity call in the assay with HSkMC and with HepG2 was “inactive” each time. Besides, in the assay on S. aureus RN4220, the growth inhibition call was “inactive”.
`C[C@H](CO)N1C[C@H](C)[C@H](CN(C)S(=O)(=O)c2ccc(F)cc2)Oc2c(NC(=O)Nc3ccc(C(F)(F)F)cc3)cccc2C1=O`: the cytotoxicity call in the assay on HSkMC and with HepG2 was “inactive” each time. For the same compound, the growth inhibition call in the assay with S. aureus RN4220 was “inactive”.
On to `C=CCC[C@@H](Cc1ccc(F)cc1)C(=O)O[C@@H](CNC(=O)[C@@H](CC=C)CC(=O)N[C@H](CO)Cc1ccccc1)c1ccccc1`, for which the cytotoxicity call with HSkMC is “inactive”. Further, the cytotoxicity call with HepG2 is “active”. In addition, the growth inhibition call in the assay on S. aureus RN4220 was “inactive”.
Consider `Cc1noc(C)c1S(=O)(=O)N(C)C[C@H]1OCCCC[C@H](C)Oc2ccc(NS(=O)(=O)c3cn(C)cn3)cc2C(=O)N([C@H](C)CO)C[C@@H]1C`, for which the cytotoxicity call in the assay on HSkMC (human skeletal muscle cells) and in the assay with HepG2 was “inactive” throughout. Also, in the assay on S. aureus RN4220, the growth inhibition call was “inactive”.
In the case of `COc1ccc(S(=O)(=O)N(C)C[C@@H]2Oc3ncc(C#CC(C)(C)O)cc3C(=O)N([C@H](C)CO)C[C@@H]2C)cc1`, the cytotoxicity call with HSkMC and with HepG2 was “inactive” each time. In the assay on S. aureus RN4220, the growth inhibition call is “inactive”.
With `CN1C(=O)c2cc(NS(=O)(=O)c3ccc(F)cc3)ccc2OC[C@H]2O[C@@H](CC(=O)NCC(F)(F)F)CC[C@H]21`, the cytotoxicity call in the assay with HSkMC and in the assay with HepG2 was “inactive” throughout. In addition, the growth inhibition call in the assay with S. aureus RN4220 was “inactive”.
